Assay results reported in patent US20240392040A1 (AKESO HUIKE SHANGHAI, published 2024).

Assays:
[1] = biological target: T1, LAG3 on 293T-LAG3 membrane surface (full-length human LAG3 on cells) (human, UniProt P18627 23-525); test: cell-based or functional assay
T1 sequence (looked up): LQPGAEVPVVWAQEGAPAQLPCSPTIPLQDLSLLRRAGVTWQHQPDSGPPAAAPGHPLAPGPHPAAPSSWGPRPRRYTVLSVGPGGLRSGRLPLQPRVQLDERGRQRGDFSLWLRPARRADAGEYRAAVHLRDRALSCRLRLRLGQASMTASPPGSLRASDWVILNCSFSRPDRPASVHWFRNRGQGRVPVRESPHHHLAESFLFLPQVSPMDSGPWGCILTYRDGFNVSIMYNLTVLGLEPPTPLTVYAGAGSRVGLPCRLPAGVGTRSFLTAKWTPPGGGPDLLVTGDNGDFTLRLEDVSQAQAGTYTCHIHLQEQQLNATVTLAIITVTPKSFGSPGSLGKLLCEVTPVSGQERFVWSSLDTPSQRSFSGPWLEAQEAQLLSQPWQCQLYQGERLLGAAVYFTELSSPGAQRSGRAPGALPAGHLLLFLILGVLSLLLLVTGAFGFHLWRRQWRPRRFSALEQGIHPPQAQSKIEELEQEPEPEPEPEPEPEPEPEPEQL

[2] = biological target: T2, PD-1 on 293T-PD1 membrane surface (full-length human PD-1 on cells) (human, UniProt Q15116 25-288); test: cell-based or functional assay
[3] = biological target: T2, PD-1 on 293T-PD1 membrane surface …; test: flow cytometry on 293T-PD1 cells
Description: 100 μL of 1% PBSA was then added to each well, and the mixture was centrifuged at 350×g for 5 min, followed by removal of the supernatant. […] The mixture was mixed gently and uniformly, and then incubated on ice for 1 h. 100 μL of 1% PBSA was added to each well, and the mixture was centrifuged at 350×g for 5 min, followed by removal of the supernatant. Then the plate was washed twice with 200 μL of 1% PBSA. […] The mixture was mixed well and then incubated on ice in the dark for 0.5 h. 100 μL of 1% PBSA was added to each well, and the mixture was centrifuged at 350×g for 5 min, followed by removal of the supernatant. Then the plate was washed twice with 200 μL of 1% PBSA. 400 μL of 1% PBSA was added to each well to resuspend the cell pellets, and the mixture was transferred to a flow cytometry tube for FACSCalibur assay.

[4] = biological target: T1, LAG3 on 293T-LAG3 membrane surface …; test: flow cytometry on 293T-LAG3 cells
Description: 100 μL of 1% PBSA was then added to each well, and the mixture was centrifuged at 350×g for 5 min, followed by removal of the supernatant. […] 100 μL of 1% PBSA was added to each well, and the mixture was centrifuged at 350×g for 5 min, followed by removal of the supernatant. Then the plate was washed twice with 200 μL of 1% PBSA. […] The mixture was mixed well and then incubated on ice in the dark for 0.5 h. […] Then the plate was washed twice with 200 μL of 1% PBSA.

[5] = biological target: T2, PD-1 on 293T-PD1 membrane surface …; test: competitive flow cytometry on 293T-PD1 cells, competitor PDL-1-mFc 20 nM
Description: 1. […] 100 μL of 1% PBSA was then added to each well, and the mixture was centrifuged and washed. […] 100 μL of a 400-fold diluted FITC goat anti-mouse IgG/IgM antibody (BD, Cat. No. 555988) was added, while 100 μL of 1% PBSA was added for a blank sample. The mixture was mixed well, incubated on ice in the dark for 30 min, washed, and centrifuged. The cells were resuspended and then transferred to a sample loading tube for testing on a flow cytometer.

FcγRI = biological target: T3, FcγRI (UniProt P12314 16-288, limits assumed); test: BLI (Fortebio Octet), FcγRI on HIS1K sensor, antibody in solution
T3 construct: Bought protein; construct not described; also called CD64
Description: (§1) The data were analyzed by 1:1 model fitting to obtain affinity constants.

FcγRIIb = biological target: T4, FcγRIIb (UniProt P31994 43-217, limits assumed); test: BLI (Fortebio Octet), FcγRIIb on NTA sensor, antibody in solution
T4 construct: Construct not described; his tag by its printed name; also called CD32b; hFCGR2B-his
T4 sequence (looked up): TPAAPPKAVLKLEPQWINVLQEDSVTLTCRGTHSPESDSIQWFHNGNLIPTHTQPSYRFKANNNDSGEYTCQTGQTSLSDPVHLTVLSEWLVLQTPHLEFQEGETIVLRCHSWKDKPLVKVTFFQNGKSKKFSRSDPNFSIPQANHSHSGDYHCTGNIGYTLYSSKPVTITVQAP
Description: as §1

FcγRIIIa_V158 = biological target: T5, FcγRIIIa_V158 (UniProt P08637 fragment, limits assumed); test: BLI (Fortebio Octet), FcγRIIIa_V158 on HIS1K sensor, antibody in solution
T5 construct: Construct not described
Description: The sensor was equilibrated in a buffer for 60 s, and the binding of the immobilized FcγRIIIa_V158 on the sensor to the antibodies at concentrations of 31.25-500 nM (serial two-fold dilution) was determined for 60 s. […] The data were analyzed by 1:1 model fitting to obtain affinity constants.

LAG3-mG1Fc = biological target: T6, LAG3-mG1Fc (UniProt P18627 23-450); test: competitive flow cytometry, LAG3-mG1Fc 3 nM pre-incubated with antibody, binding to MHC II on Raji cells
T6 construct: not shown: mG1Fc (mouse IgG1 Fc by its name)
T6 sequence (looked up): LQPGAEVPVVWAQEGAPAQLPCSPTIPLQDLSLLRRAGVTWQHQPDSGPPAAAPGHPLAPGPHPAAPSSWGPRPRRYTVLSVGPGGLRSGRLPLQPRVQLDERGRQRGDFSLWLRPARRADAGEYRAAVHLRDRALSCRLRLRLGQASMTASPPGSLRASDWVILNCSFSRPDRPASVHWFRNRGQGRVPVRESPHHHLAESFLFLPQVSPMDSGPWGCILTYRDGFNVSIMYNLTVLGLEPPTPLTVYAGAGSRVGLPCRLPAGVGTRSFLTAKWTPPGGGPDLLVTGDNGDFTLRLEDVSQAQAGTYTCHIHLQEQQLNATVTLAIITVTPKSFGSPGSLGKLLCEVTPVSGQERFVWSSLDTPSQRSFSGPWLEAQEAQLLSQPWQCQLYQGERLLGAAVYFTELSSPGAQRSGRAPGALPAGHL

T2 sequence (Q15116 25-288): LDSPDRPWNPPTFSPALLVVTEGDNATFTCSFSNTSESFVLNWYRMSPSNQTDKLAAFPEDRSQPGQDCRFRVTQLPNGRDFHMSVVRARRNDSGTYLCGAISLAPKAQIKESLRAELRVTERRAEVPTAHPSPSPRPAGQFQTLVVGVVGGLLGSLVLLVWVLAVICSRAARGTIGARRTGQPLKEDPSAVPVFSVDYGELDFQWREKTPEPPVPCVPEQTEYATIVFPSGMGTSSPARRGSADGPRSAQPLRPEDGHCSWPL
FcγRI, sequence (P12314 16-288 limits assumed): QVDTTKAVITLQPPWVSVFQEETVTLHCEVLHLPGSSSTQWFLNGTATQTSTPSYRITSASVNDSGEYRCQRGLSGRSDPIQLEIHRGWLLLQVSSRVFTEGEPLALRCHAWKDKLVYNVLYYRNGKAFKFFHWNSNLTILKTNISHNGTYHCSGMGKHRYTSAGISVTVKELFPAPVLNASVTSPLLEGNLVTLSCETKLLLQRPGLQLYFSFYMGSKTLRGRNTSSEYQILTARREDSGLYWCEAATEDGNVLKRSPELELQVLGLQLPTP
FcγRIIIa_V158, sequence (P08637 17-208 F176V limits assumed): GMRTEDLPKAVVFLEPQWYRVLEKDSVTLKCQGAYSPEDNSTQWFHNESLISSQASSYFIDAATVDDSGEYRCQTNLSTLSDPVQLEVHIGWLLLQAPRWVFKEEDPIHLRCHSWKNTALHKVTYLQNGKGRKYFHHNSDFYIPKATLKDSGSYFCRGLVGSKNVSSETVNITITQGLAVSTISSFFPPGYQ

EC50 (nM), luciferase reporter (RLU), Jurkat-NFAT-PD1-LAG3 cells + SEE-treated Raji cells [1]: 0.976 nM
EC50 (nM), luciferase reporter (RLU), PD1 effector cells + PDL1 aAPC/CHO-K1 cells [2]: 20 nM
EC50 [3]: 6.07 nM
EC50 [4]: 3.21 nM
EC50 [5]: 5.12 nM
binding result (FcγRI): no binding
binding result (FcγRIIb): no binding
binding result (FcγRIIIa_V158): no binding
EC50 (LAG3-mG1Fc): 1.31 nM
B1: BS-PL022B (bispecific antibody, human IgG1, kappa)
heavy: QVQLQQWGAGLLKPSETLSLTCAVYGGSISDYYWNWIRQPPGKGLEWIGEINHRGTTNSNPSLKSRVTLSLDTSKNQFSLKLRSVTAADTAVYYCAFGYSDYEYDWFDPWGQGTLVTVSSASTKGPSVFPLAPSSKSTSGGTAALGCLVKDYFPEPVTVSWNSGALTSGVHTFPAVLQSSGLYSLSSVVTVPSSSLGTQTYICNVNHKPSNTKVDKKV[skipping human IgG1 Fc with L234A L235A G237A (EU numbers)]GGGGSGGGGSGGGGSGGGGSEVQLVESGGGLVQPGGSLRLSCAASGFAFSSYDMSWVRQAPGKGLDWVATISGGGRYTYYPDSVKGRFTISRDNSKNNLYLQMNSLRAEDTALYYCANRYGEAWFAYWGQGTLVTVSSGGGGSGGGGSGGGGSGGGGSDIQMTQSPSSMSASVGDRVTFTCRASQDINTYLSWFQQKPGKSPKTLIYRANRLVSGVPSRFSGSGSGQDYTLTISSLQPEDMATYYCLQYDEFPLTFGAGTKLELKR
light: EIVLTQSPATLSLSPGERATLSCRASQTISSYLAWYQQKPGQAPRLLIYDASNRATGIPARFSGSGSGTDFTLTISSLEPEDFAVYYCQQRSNWPITFGQGTNLEIKRTVAAPSVFIFPPSDEQLKSGTASVVCLLNNFYPREAKVQWKVDNALQSGNSQESVTEQDSKDSTYSLSSTLTLSKADYEKHKVYACEVTHQGLSSPVTKSFNRGEC
notes: Morrison form (IgG-scFv): an scFv at the C-terminus of each of the two heavy chains
